Whole data set: some 81,000 sequences, median “one-hybrid fitness for binding NBS DNA” near -0.1, cut for the highest 2% near 0.36. Some of the results follow. Where only a bound is given, the exact number is not on record here.

B1: Caulobacter ParB omega fusion; a variant is named by its letters at X, in order, B8GW30 (parent)
chain: MESVVVGEPGMSEGRRGLGRGLSALLGEVDAAPAQAPGEQLGGSREAPIEILQRNPDQPRRTFREEDLEDLSNSIREKGVLQPILVRPSPDTAGEYQIVAGERAWRAAQRAGLKTVPIMVRELDDLAVLEIGIIENVQRADLNVLEEALSYKVLMEKFERTQENIAQTIGKSXSHVANXMRLLXLPDEVQSYLVSGELTAXHARAIAAAADPVALAKQIIEGGLSVRETEALARKAPNLSAGKSKGGRPPRVKDTDTQALESDLSSVLGLDVSIDHRGSTGTLTITYATLEQLDDLCNRLTRGI

This assay covers variants of B1. Briefly: one-hybrid fitness for binding NBS DNA (the Noc-binding site; scaled: cognate 1, non-cognate 0); higher = stronger binding. To be noted: with NBS DNA site. In outline:
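Pre- and post-selection plasmids were Illumina-sequenced, three replicate libraries were pooled, and any variant with under 10 reads was removed. The libraries were Caulobacter ParB with four specificity codons randomised, selected in E. coli USO through a HIS3 reporter whose site is 19 bp from the promoter. Cells grew 48 hours at 37°C on M9 without histidine, with 0.1 mM IPTG and 5 mM 3-AT. Fitness is the log change in variant-to-wild-type read ratio, rescaled against cognate and non-cognate.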
WLNV: the “one-hybrid fitness for binding NBS DNA” value was no more than 0.2. In the case of RFMH it was no more than 0.2. In the case of KQNV it was no more than 0.2; in that of SHFV, no more than 0.2; in that of ATLK, no more than 0.2. Then PRGI, with no more than 0.2; and AHYC, with no more than 0.2; and MMRR, with no more than 0.2. On to PTAH, for which the “one-hybrid fitness for binding NBS DNA” value was no more than 0.2.

As for THQD, the “one-hybrid fitness for binding NBS DNA” value is no more than 0.2. WKPS: the “one-hybrid fitness for binding NBS DNA” value is no more than 0.2. Take LYFG: the “one-hybrid fitness for binding NBS DNA” value was no more than 0.2. As for SVVK, the “one-hybrid fitness for binding NBS DNA” value was no more than 0.2. In the case of TAAS it was no more than 0.2; in that of ETLC, no more than 0.2; in that of NYLG, no more than 0.2. Regarding EKQI, the “one-hybrid fitness for binding NBS DNA” value is no more than 0.2.

Turning to PIMS, the “one-hybrid fitness for binding NBS DNA” value is no more than 0.2. Then DKAG, with no more than 0.2; and TPTW, with no more than 0.2; and LVGG, with no more than 0.2.

As for YFSA, the “one-hybrid fitness for binding NBS DNA” value was no more than 0.2. Then LHMN, with no more than 0.2; and CGPF, with no more than 0.2.

With NDSG, the “one-hybrid fitness for binding NBS DNA” value is no more than 0.2.

As for RRRK, the “one-hybrid fitness for binding NBS DNA” value was determined as 0.41. Then WRET, with no more than 0.2. Then CLHH, with no more than 0.2; and RMAK, with no more than 0.2.

As for VCAR, the “one-hybrid fitness for binding NBS DNA” value was no more than 0.2. Then TNHT, with no more than 0.2. In the case of TILF it was no more than 0.2; in that of SQYQ, no more than 0.2; in that of SLCD, no more than 0.2. Turning to NTFR, the “one-hybrid fitness for binding NBS DNA” value is no more than 0.2. Then GETI, with no more than 0.2.

For the variant PRTY, the “one-hybrid fitness for binding NBS DNA” value was no more than 0.2. In the case of TRSY it was no more than 0.2; in that of YWRY, no more than 0.2; in that of PPVM, no more than 0.2.

For MAYG, the “one-hybrid fitness for binding NBS DNA” value was no more than 0.2.

As for ILEG, the “one-hybrid fitness for binding NBS DNA” value was no more than 0.2. Then RYPY, with no more than 0.2; and MWST, with no more than 0.2. Then WSKY, with no more than 0.2; and HETC, with no more than 0.2. In the case of PRNL it was no more than 0.2.

In the case of YEHT, the “one-hybrid fitness for binding NBS DNA” value is no more than 0.2. In the case of NALT it was no more than 0.2. As to GDCS, the “one-hybrid fitness for binding NBS DNA” value was no more than 0.2. In the case of PRDC, the “one-hybrid fitness for binding NBS DNA” value was no more than 0.2. Turning to LIDI, the “one-hybrid fitness for binding NBS DNA” value was no more than 0.2. In the case of SAQA it was no more than 0.2; in that of PWES, no more than 0.2.

Turning to AVVA, the “one-hybrid fitness for binding NBS DNA” value was no more than 0.2. Turning to KCAD, the “one-hybrid fitness for binding NBS DNA” value was no more than 0.2. In the case of VHYM it was no more than 0.2; in that of KRAL, no more than 0.2; in that of IIDT, no more than 0.2. In the case of LQPW it was no more than 0.2; in that of PLVN, no more than 0.2. Then NVFD, with no more than 0.2; and PTGF, with no more than 0.2; and LELK, with no more than 0.2. QAEL: the “one-hybrid fitness for binding NBS DNA” value is no more than 0.2.

With QMYF, the “one-hybrid fitness for binding NBS DNA” value is no more than 0.2.

As for HTIR, the “one-hybrid fitness for binding NBS DNA” value is no more than 0.2.

As for VGGV, the “one-hybrid fitness for binding NBS DNA” value was no more than 0.2.

Consider GTPL, for which the “one-hybrid fitness for binding NBS DNA” value is no more than 0.2. In the case of AQRN it was no more than 0.2; in that of MMYS, no more than 0.2; in that of YAHE, no more than 0.2.

As to GQSI, the “one-hybrid fitness for binding NBS DNA” value was no more than 0.2. Then NCLR, with no more than 0.2. Then GFPY, with no more than 0.2; and SILG, with no more than 0.2; and KLDR, with no more than 0.2. In the case of NRLW it was no more than 0.2; in that of KFVN, no more than 0.2. AKHP: the “one-hybrid fitness for binding NBS DNA” value is no more than 0.2. For the variant LFAM, the “one-hybrid fitness for binding NBS DNA” value is no more than 0.2. Then PIYD, with no more than 0.2; and QTTC, with 0.223; and YFSK, with no more than 0.2.

For the variant LHKM, the “one-hybrid fitness for binding NBS DNA” value was no more than 0.2. Then YDSR, with no more than 0.2; and TKHQ, with no more than 0.2. Then IPCL, with no more than 0.2; and CLCY, with no more than 0.2; and EKGG, with no more than 0.2. As for QYKF, the “one-hybrid fitness for binding NBS DNA” value came to 0.229. Consider WLTR, for which the “one-hybrid fitness for binding NBS DNA” value was no more than 0.2.

On to FAYG, for which the “one-hybrid fitness for binding NBS DNA” value is no more than 0.2.

As to FNLA, the “one-hybrid fitness for binding NBS DNA” value was found to be 0.335.

For SWYS, the “one-hybrid fitness for binding NBS DNA” value is no more than 0.2. Then LLMS, with no more than 0.2.

As for VRAT, the “one-hybrid fitness for binding NBS DNA” value was 0.233.

For the origin of these results see a collection of fitness landscapes (doi:10.1016/j.celrep.2020.107928).
